The results in this text go back to PubChem BioAssay (NCI).

The assay relates to NCI-H322M lung. The experiment in a line: inhibition of tumour cell growth, NCI panel, 48 h.

The structures appear in SMILES notation.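 Assay format: 96-well plates, 48-hour exposure. Here, GI50 denotes the concentration required for 50% inhibition of growth. At the TGI there is no net growth.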 Bounds are passed on as bounds.

As to `C#Cc1nc(C2=C(C)C(OC(C)=O)/C(=N/OC(C)=O)C2)cs1` (stereo unspecified), the GI50 is greater than 100 µM and the TGI was greater than 100 µM.
Consider `CCO/C=N/C1=C(C#N)C(c2ccc(OC)cc2)c2sc3c(C)cccc3c2O1` (stereo unspecified), for which the GI50 is 1.49 µM and the TGI is greater than 100 µM.
On the same counts, the results for `COc1cc(/C=N/NC(=O)c2cn(C3CC3)c3c(OC)c(N4CC5CCCNC5C4)c(F)cc3c2=O)ccc1O` (stereo unspecified) are 1.67 µM and 3.18 µM.
